# Several values for one entry are separate records, joined by “and”; a condition that tells them apart may be missing. Equal entries are not always repeated. About 50,000 (12%) of roughly 420,000 compounds were called active. Inconclusive means that the source gave no clear call. Such entries were picked first, then a sample of the others. Calls follow the shape of the dose curve; as a rule, active = well fitted inhibition curve with a large enough effect; inconclusive = small, poorly fitted or top-dose-only effect; inactive = flat fitted curve, though single readings scatter. No potency is given beside an inconclusive call; the fits are too rough.
# Assay: qHTS for Inhibitors of human tyrosyl-DNA phosphodiesterase 1 (TDP1): qHTS in cells in presence of CPT; also: nearly all actives have a fitted effect of over 55% in size
# Conditions: chicken DT40 Tdp1-/-;hTDP1 cells + 20 nM CPT, ATP luminescence, 48 h; activity change, negative = growth inhibition: at 46.2 µM (top of the series) unless noted
# Method in brief: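 Chicken DT40 Tdp1-/- cells complemented with human TDP1, 400 cells/well, exposed to compounds plus 20 nM camptothecin for at least 48 h at 37 C; viability read as ATP content by CellTiter-Glo luminescence.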
# % is scaled to controls: 0 for no effect and ±100 for the full control effect; potency is read from the fitted curve at half-maximal effect; tags tell the direction and shape of the fitted curve.
Structure (SMILES),"activity change, negative = growth inhibition",Potency
CCCCn1c(N)c(N(CCOC)C(=O)COC(=O)c2cc(CCC)c(C)s2)c(=O)[nH]c1=O,inactive: 0.0053%,–
O=C(NCc1nnc2n1CCN(Cc1ccnc3ccccc13)CC2)c1cccc(F)c1,–,"inconclusive [inhibitor, single point]"
CCOC(=O)c1cc2c(N)c(C(=O)c3cc(C#N)c(SC)nc3C)sc2nc1C,–,active: 13 µM
O=C(CCn1c(=S)oc2ccccc21)N1CCN(c2ccc(F)cc2)CC1,–,"inconclusive [inhibitor, single point]"
Oc1ccc(/C=N/NC(=S)Nc2cccnc2)c(O)c1O,–,active: 9.2 µM
O=C1CN(C(=O)COc2ccccc2)C(c2ccc(F)cc2)c2cc(Br)ccc2N1 (stereo unspecified),–,"inconclusive [inhibitor, single point]"
CCN=C1S/C(=C\c2cn(CC(=O)NCCOC)c3ccccc23)C(=O)N1CC,inconclusive: -32.6% [inhibitor],–
CCOC(=O)N1CCC(Nc2cc(C)nc3c(-c4ccccc4OC)c(C)nn23)CC1,–,active: 5.8 µM
Cc1noc(/C=C/N(C)C)c1S(=O)(=O)N(C)Cc1ccc(F)cc1,–,"inconclusive [inhibitor, single point]"
O=C(CC1(O)C(=O)Nc2ccc(Br)cc21)c1ccccc1 (stereo unspecified),–,"inconclusive [inhibitor, single point]"
COc1cc(/C=N/Nc2ccc(Cl)nn2)cc(OC)c1O,inactive: 12.2%,–
Cc1ccc(NC(=O)CCCn2c(=O)c3cccn3c3ccccc32)cc1Cl,inactive: -24.8%,–
Cc1cc(Br)cc2c(C(=O)NCC3CCCO3)cc(-c3cccs3)nc12 (stereo unspecified),–,"inconclusive [inhibitor, partial curve]"
O=C(CCn1cnnn1)NC1CCCN(Cc2ccccc2F)C1 (stereo unspecified),inactive: -14.6%,–
CCC(C)c1ccc(O)c(NC(=S)NC(=O)c2cccs2)c1 (stereo unspecified),–,active: 13 µM
CCOC(=O)c1sc(NC(=O)CCN2CCCCCC2)c(C(=O)OCC)c1C,–,"inconclusive [inhibitor, single point]"
COc1ccccc1CNc1ncncc1-c1ccccc1OC,–,"inconclusive [inhibitor, single point]"
O=C(NCc1nc2ccccc2n1Cc1ccccc1Cl)c1ccccc1,–,"inconclusive [inhibitor, single point]"
Cc1cc(C)c2[nH]c(=O)c(CN(CC3CCCO3)S(=O)(=O)c3ccc4c(c3)OCCO4)cc2c1 (stereo unspecified),–,"inconclusive [inhibitor, single point]"
CC1(C)Cc2c(sc(NC(=O)C(=O)NCC3CCCO3)c2C(N)=O)CO1 (stereo unspecified),inactive: -11.2%,–
O=S(=O)(Nc1nccs1)c1cnc(Cl)c(Br)c1,–,"inconclusive [inhibitor, partial curve]"
CCOC(=O)c1ccc(NC(=O)CN(Cc2ccc(Cl)cc2)S(C)(=O)=O)cc1,–,"inconclusive [inhibitor, single point]"
COc1cccc(NC(=O)CSc2ccc(-c3sc(C)nc3C)nn2)c1,–,active: 14.6 µM
CCCc1[nH]nc2c1C(c1ccc(OC)c(CSC3=NCCS3)c1)C(C#N)=C(N)O2 (stereo unspecified),–,"inconclusive [inhibitor, single point]"

Structure (SMILES),"activity change, negative = growth inhibition",Potency
COCC(C)n1c(SCc2nc(N)nc(Nc3ccccc3C)n2)nc2ccccc2c1=O (stereo unspecified),–,active: 16.4 µM
CCN(CC)CC(=O)Nc1sc(C)c(C)c1C(=O)c1ccc(C)cc1,–,"inconclusive [inhibitor, partial curve]"
COc1ccc(C(=O)N2C(=S)NC(=O)/C2=C\c2ccc(C)cc2)cc1,–,"inconclusive [inhibitor, single point]"
COc1ccc(CCN2CNc3c(c(=O)n(C)c(=O)n3C)C2)cc1,–,"inconclusive [inhibitor, single point]"
Cc1ccc(C(=O)O/N=C(\N)Cc2ccc([N+](=O)[O-])cc2)c(Cl)c1,–,"inconclusive [inhibitor, single point]"
CC(C)Oc1ccc(/C=C(/NC(=O)c2ccccc2)C(=O)NCCC(=O)O)cc1,inactive: -1.88%,–
ON=C1CCC2CCCCC2C1 (stereo unspecified),inactive: -4.2%,–
COC(=O)c1ccc2c(=O)n(CCO)c(=S)[nH]c2c1,inactive: 8.37%,–
Cc1ccsc1/C=N/NC(=O)c1nnn(-c2nonc2N)c1CN(C)c1ccccc1,–,"inconclusive [inhibitor, single point]"
Cc1ccc(S(=O)(=O)N2CCC(C(=O)Nc3ccc(S(=O)(=O)N4CCCC4)cc3)CC2)cc1C,–,"inconclusive [inhibitor, partial curve]"
CCOc1ccc(CCNC(=O)Cn2ccc3cc(S(=O)(=O)N4CCCCC4)ccc32)cc1,–,"inconclusive [inhibitor, single point]"
CCOC(=O)C1=C(CSc2nc(C)cc(C)c2C#N)OC(N)=C(C#N)C1c1cccs1 (stereo unspecified),–,"inconclusive [inhibitor, single point]"
COc1ccc(CCNC(=S)NC(=O)c2cc(OC)c(OC)c(OC)c2)cc1OC,inactive: -15.8%,–
CN(C)c1ccc(/C=C/c2ccnc3cc(Cl)cc(Cl)c23)cc1,–,"inconclusive [inhibitor, single point]"
CCOC(=O)[C@H]1[C@H]2COc3ccc(C)cc3[C@@H]2N2C(=O)c3cc(Br)ccc3NC(=O)[C@@]12C,–,"inconclusive [inhibitor, single point]"
CCc1nc2c(OCCOc3ccc(F)cc3)cccn2c1N(C)C(=O)c1ccc(OC)cc1,–,"inconclusive [inhibitor, single point]"
O=C(Nc1ccccc1F)c1nc(SCc2ccccc2F)ncc1Cl,–,"inconclusive [inhibitor, single point]"
Cc1nnc(C)c2c(C)n(-c3ccccc3)c(C)c12,–,active: 23.1 µM
CC(C)c1cc(N=NC(N)=O)cc(C(C)C)c1O,inactive: 1.17%,–
CCN(CC)C(=O)CSc1nc(Cc2ccccc2)nc2ccccc12,–,"inconclusive [inhibitor, single point]"
COc1cccc(CNC(=O)c2ccc3c(c2)N(Cc2ccc(F)cc2Cl)C(=O)c2ccccc2S3)c1,–,"inconclusive [inhibitor, single point]"
COc1ccccc1NC(=O)c1ccc(C(=O)c2ccccc2)o1,–,"inconclusive [inhibitor, single point]"
COc1ccccc1N1CCN(Cc2cc(Br)c(O)c3ncccc23)CC1,–,active: 6.51 µM
CCn1nc(C)c(CN2CCCC(CO)(Cc3ccccc3)C2)c1C (stereo unspecified),inactive: -20%,–

Structure (SMILES),"activity change, negative = growth inhibition",Potency
COc1cc(OC)c2c(=O)c(OC)c(-c3ccc(OC)c(OC)c3)oc2c1,–,"inconclusive [inhibitor, single point]"
CC(C)(C)c1cnnn1-c1ccc(NC(=O)c2ccc3c(c2)OCO3)cc1,–,"inconclusive [inhibitor, single point]"
Clc1ccc(CSc2nccn2Cc2ccccc2)cc1,–,"inconclusive [inhibitor, single point]"
CCC(=O)Nc1nc2nc(C)cc(=O)n2[nH]1,inactive: -4.76%,–
CCC(C)Sc1nc2ccccc2n1CC(=O)O (stereo unspecified),inactive: -17.3%,–
CCN(CC)CCCN(C(=O)c1ccco1)c1nc(-c2ccc(Cl)cc2)cs1,–,"inconclusive [inhibitor, single point]"
N#CCCN(C(=O)CSc1ccc2c(c1)OCCO2)c1ccc(F)cc1,–,"inconclusive [inhibitor, single point]"
COc1ccc(-n2nc(C(=O)Nc3ccc(C)cn3)c3c4ccccc4n(C)c3c2=O)cc1Cl,inactive: -0.841%,–
CCOC(=O)C1CCN(c2cc3c(cc2NC(=O)c2cc(OC)ccc2Br)n(C)c(=O)n3C)CC1,–,active: 16.4 µM
Cc1cccc(C)c1NC(=O)Cn1c(=O)n(Cc2ccccc2Cl)c(=O)c2cccnc21,–,"inconclusive [inhibitor, full curve]"
NC1(c2ccc(-c3nc4ccn5c(=O)[nH]nc5c4cc3-c3ccccc3)cc2)CCC1,–,active: 282 nM and active: 376 nM
CCN(C(=O)CSc1nc2ccccc2n1Cc1ccccc1C#N)c1ccccc1,–,active: 14.6 µM
CN(C)c1nc(NCc2ccccc2)nc(N/N=C/c2ccc(Cl)cc2Cl)n1,–,active: 23.1 µM
Cc1ccc(-n2c(=O)[nH]c3cc(C(=O)NCCc4ccccc4)ccc3c2=O)cc1,inactive: 1.28%,–
O=C(Nc1cccc(C(F)(F)F)c1)c1cccnc1NCCc1ccccc1,–,"inconclusive [inhibitor, single point]"
CCC(c1nnnn1-c1ccc2c(c1)OCCO2)N1CCN(Cc2c(F)cccc2Cl)CC1 (stereo unspecified),–,"inconclusive [inhibitor, single point]"
Cc1ccc2c(C)c(C(=O)NCC(c3ccc(Cl)cc3)N3CCOCC3)oc2c1 (stereo unspecified),–,active: 14.6 µM
COc1cc(NC(=O)C2CCN(c3nnc(C)c4c(C)n(-c5ccccc5)nc34)CC2)cc(OC)c1,–,"inconclusive [inhibitor, single point]"
CN(CCO)C(=O)CCC(=O)Nc1ccc(S(N)(=O)=O)cc1,inactive: 2.92%,–
COc1ccc(C(CNC(=O)c2cccc(S(=O)(=O)Nc3ccccc3OC)c2)N2CCCC2)cc1 (stereo unspecified),–,"inconclusive [inhibitor, single point]"
CCCNC(=O)CCc1cc(C(C)(C)C)c(O)c(C(C)(C)C)c1,–,"inconclusive [inhibitor, partial curve]"
CCn1c(O)c(/C=C2\C=NN=C2c2ccc(C)cc2)sc1=S,inactive: 0.0018%,–
CC(C)(C)N(Cc1cc2ccccc2[nH]c1=O)C(=O)c1cccc([N+](=O)[O-])c1,inactive: -22.8%,–

# — PubChem BioAssay AID686979 (National Center for Advancing Translational Sciences (NCATS), 2013)
